Experimental data published in ChEMBL document CHEMBL4888484, “Replenishing the malaria drug discovery pipeline: Screening and hit evaluation of the MMV Hit Generation Library 1 (HGL1) against asexual blood stage Plasmodium falciparum ,using a nano luciferase reporter read-out” (2022).
Among all 150,000 compounds or so, about 540 (0.36%) showed an effect of 50% or more. Some of the results follow.

tested on: Plasmodium falciparum; assay: Primary screen in NF54 nanoGlo assay, in single point, at 2uM, 72h; a lower Z score goes with more inhibition; assay type: functional, Erythrocyte; details: timepoint 72 hour

| Compound | % Inhibition [%] | Z score |
| --- | --- | --- |
| Cn1cc(C(=O)O)c(-c2ccc(NS(=O)(=O)c3ccccc3OC(F)(F)F)cc2)n1 | -10 | 2.07 |
| CC1CC(N2CCC(CN(C)C(=O)OC(C)(C)C)CC2)C(=O)O1 (configuration not stated) | -8 | 0.77 |
| CCCc1cnc(C)nc1N1CCC[C@H](c2nnc(CN(C)C)n2C)C1 | -6 | 1.15 |
| COCCC1(CNC(=O)NC2CCCCC2OC)CC1 (configuration not stated) | -14 | 1.85 |
| O=C(Nc1ccn(CC(F)(F)F)n1)N1CC[C@H](CN2CCCC2)C1 | -11 | 1.44 |
| Cc1cc(-n2nc(CCc3ccccc3)nc2[C@H]2CCOC2)ccn1 | 2 | -0.16 |
| COCCNC(=O)N1CCCn2nc(-c3cccc(OC)c3)cc2C1 | -5 | 0.53 |
| COCCN(CCOc1ccccc1F)S(=O)(=O)c1ccc(F)cc1F | -10 | 1.4 |
| Cc1nc(Cn2nnc(NS(=O)(=O)N3CCC4(CCCCC4)CC3)c2C)no1 | -8 | 1.15 |
| O=S(=O)(NCC1(O)CCC1)c1ccc(Oc2cccc3cccnc23)cc1 | 5 | -0.69 |
| O=C(NC[C@@H](c1ccc(F)cc1)N1CCCC1)c1cn(C2CCCCC2)nn1 | 12 | -1.55 |
| Cc1cccnc1CCNC(=O)N1CCCC[C@H]1c1cccc(F)c1 | 2 | -0.37 |
| Cc1cnccc1CN(C)c1nc(-c2ccncc2)nc2c1c(C)nn2C | -8 | 1.51 |
| CC[C@H](Oc1cccc(C)c1)C(=O)NCc1ccnc(C)n1 | -9 | 1.27 |
| CCc1cc(C(=O)N2CCC[C@@]3(CCC(=O)N(Cc4cnc(C)cn4)C3)C2)[nH]n1 | -18 | 1.95 |
| C/C=C(\C)CN1CC[C@H](CNC(=O)c2onc3ccccc23)C1 | -5 | 0.63 |
| COc1ccc(-c2cc(-c3ccc(C)cc3)nc(N3CCC(C)CC3)n2)cc1 | 22 | -2.85 |
| Cn1c(=O)n(C)c2cc([C@@H](O)COc3ccc(CNCc4ccccc4)cc3)ccc21 | -16 | 1.45 |
| COc1ccc(N2C(=O)CN(Cc3ccc(OC)c(O)c3)CC23CCCC3)cc1 | 14 | -1.81 |
| CCC(CO)NC(=O)C(C)N1C(C)CCC1C (configuration not stated) | -6 | 0.72 |
| Cc1ccc([C@@H](NC(=O)CCc2cc(C(C)(C)C)c(O)c(C(C)(C)C)c2)C(=O)Nc2ccc(C(C)C)cc2)cc1 | -17 | 3 |
| O=c1nc(NCCc2c[nH]c3ccccc23)cn[nH]1 | 1 | -0.09 |
| CN(Cc1ccc(CN)cc1)C(=O)OC(C)(C)C | -8 | 0.86 |
| O=C(Cn1nc(N2CCOCC2)c2ccccc2c1=O)N1CCN(c2ccccc2)CC1 | -7 | 1.07 |
| Cc1ccc(S(=O)(=O)N2CCN(c3cc(Oc4cccc(F)c4)ncn3)C[C@@H]2C)cc1 | 3 | -0.57 |
| COCCNC(=O)COCC(=O)Nc1ccccc1 | -3 | 0.51 |

| Compound | % Inhibition [%] | Z score |
| --- | --- | --- |
| COCCN1CCN(c2nccc(N3CCCC(C)(C)C3)n2)C[C@@H]1C | 3 | -0.54 |
| CC1(C)[C@H](Cc2cc(-c3ccccc3)on2)C[C@@H]1NS(C)(=O)=O | -8 | 1.25 |
| COc1ccc(N2CCN(C(=O)[C@H](C)NC(=O)c3cc4ccccc4[nH]3)CC2)cc1 | -2 | 0.3 |
| C[C@@H](CC(=O)NCCCN1CCOCC1)CC(=O)Nc1cccc(Cl)c1Cl | -11 | 2.09 |
| Cc1cc(C)cc(OCC(=O)NCC(C)C)c1 | -13 | 1.68 |
| Cc1nc(N)nc(N2CCC[C@H](N(C)C)C2)c1Cl | -8 | 0.87 |
| CCC(NC(C)C1CCCC1)C(=O)N1CCOCC1 (configuration not stated) | -7 | 1.04 |
| COCCN1CCC(c2c(-c3ccccc3)ncn2C2CC=CC2)CC1 | 15 | -1.92 |
| O=C(O)[C@H](Cc1ccccc1)NC(=O)[C@@H]1CCCN1C(=O)[C@H](Cc1ccccc1)n1c(=O)[nH]c2ccccc2c1=O | -4 | 0.58 |
| N#Cc1cccc(NC(=O)C2CCN(S(=O)(=O)c3ccc4c(c3)CCCN4C(=O)C3CCC3)CC2)c1 | -18 | 3.38 |
| Cc1ccc(-n2cccn2)c(-c2nccn2CCc2c[nH]c(=O)[nH]c2=O)c1 | -5 | 0.45 |
| CCCCn1ccnc1-c1cccc(NC(=O)NC[C@H](O)c2ccc(F)cc2)c1 | 2 | -0.2 |
| CCc1noc(C)c1C(=O)N[C@@H]1[C@H]2CCO[C@H]2[C@H]1Cc1ccccc1 | -10 | 1.59 |
| CCOc1cc(C2N[C@H](C(=O)O)Cc3c2[nH]c2ccccc32)ccc1O (some centres not stated) | -8 | 0.95 |
| CC(=O)Nc1cccc(NC(=O)c2cc(C)n(-c3ccc4c(c3)OCCO4)c2C)c1 | 6 | -1.13 |
| C[C@@H](C(=O)NCc1ccnn1C)n1ccnc1-c1ccccc1 | -2 | 0.32 |
| C[C@](O)(CCc1ccccc1)CNC(=O)C(=O)Nc1cccc(C(F)(F)F)c1 | -1 | 0.12 |
| CC1CCCCC1N(C)C(=O)Cn1cc(-c2ccccc2)ncc1=O (configuration not stated) | -25 | 3.16 |
| CN1CCC(OC2CCN(S(=O)(=O)c3cccc(Br)c3)CC2)CC1 | -10 | 1.25 |
| Cc1ccnc(NC(=O)c2ccc(-c3ccccc3)cc2)c1 | -1 | 0.21 |
| CCNc1nc(NC(C)C)nc(Oc2ccc(OCCOc3ccccc3C)nn2)n1 | 3 | -0.36 |
| CC(C)[C@@H]1CN(c2nnc(CN(C)C)n2C)CCO1 | -1 | 0.14 |
| CCCc1ccc(S(=O)(=O)N2CCC3(CC2)NCCN=C3NCc2ccccc2)cc1 | -3 | 0.39 |
| CCCN(CCC)c1ccc(NS(=O)(=O)c2ccc3c(c2)CCCC3)cc1C(=O)O | -18 | 1.72 |
| CCCn1c(O)c(C#N)c(C)c(CN2CCCCC2)c1=O | -18 | 2.16 |
